Laboratory results: PubChem BioAssay AID624170 (National Center for Advancing Translational Sciences (NCATS), 2012)
In all, about 410,000 compounds went through this assay and about 850 (0.21%) were called active. Inconclusive means that the source gave no clear call. Such entries were picked first, then a sample of the others. The call rests on the fitted dose curve; in most records, active means well fitted inhibition curve with a large enough effect; inconclusive means small, poorly fitted or top-dose-only effect, or another doubt; inactive means no such curve, though single readings can be large or run the other way. Potencies of inconclusive entries are left out as doubtful fits.

The compounds below were run against Glutaminase kidney isoform, mitochondrial (Homo sapiens) (UniProt O94925) (assay: qHTS for Inhibitors of Glutaminase (GLS)). Details: GLS enzymatic activity, qHTS titration; series mostly up to 45.5 µM; activity change, negative = inhibition: at the top concentration.
Procedure, shortened: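 Read-out is an Amplex red fluorescence increase coupled through glutamate oxidase and HRP, measured before and after 30 min room-temperature incubation. hKGA is in 45 mM KH2PO4 (pH 8.2) with 0.02% Tween-20; glutamine added as 1mM solution.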
On the % scale 0 is the no-effect control and ±100 the full control effect; potency means the concentration at half of the fitted maximal effect; tags describe the fitted curve by direction and shape.

UniProt O94925, sequence (O94925 whole entry, looked up, canonical isoform): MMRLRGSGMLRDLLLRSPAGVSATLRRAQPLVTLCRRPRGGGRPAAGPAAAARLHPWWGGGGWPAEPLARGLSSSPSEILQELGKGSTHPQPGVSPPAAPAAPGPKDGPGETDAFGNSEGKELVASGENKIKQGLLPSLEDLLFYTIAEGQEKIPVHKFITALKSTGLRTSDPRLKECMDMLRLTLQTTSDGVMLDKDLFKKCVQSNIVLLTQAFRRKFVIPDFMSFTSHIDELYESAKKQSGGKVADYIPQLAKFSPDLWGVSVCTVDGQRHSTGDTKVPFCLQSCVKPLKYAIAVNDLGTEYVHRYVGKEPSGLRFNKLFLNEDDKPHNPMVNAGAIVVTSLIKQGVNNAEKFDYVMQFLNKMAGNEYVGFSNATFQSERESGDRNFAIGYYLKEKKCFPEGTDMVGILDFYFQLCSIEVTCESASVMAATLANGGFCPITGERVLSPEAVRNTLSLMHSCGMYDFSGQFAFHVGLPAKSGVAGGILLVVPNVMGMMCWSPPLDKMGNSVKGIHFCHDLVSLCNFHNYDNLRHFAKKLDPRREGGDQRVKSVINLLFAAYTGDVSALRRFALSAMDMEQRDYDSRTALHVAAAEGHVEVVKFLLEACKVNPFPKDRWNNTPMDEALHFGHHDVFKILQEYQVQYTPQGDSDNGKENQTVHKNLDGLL

| Structure (SMILES) | Potency | activity change, negative = inhibition |
| --- | --- | --- |
| NS(=O)(=O)c1cc(C(=O)NC2CCSc3ccccc32)ccc1Cl (stereo not given) | inconclusive [inhibitor, partial curve, poor fit] |  |
| O=C(/C=C/NNC(=O)c1ccccc1)c1ccc([N+](=O)[O-])cc1 | inconclusive [inhibitor, partial curve] |  |
| Cc1ccc(S(=O)(=O)N2CCN(CC(=O)N/N=C\c3ccc(O)c(O)c3)CC2)cc1 | inconclusive [inhibitor, single point] |  |
| Cc1ccc(S(=O)(=O)NC(C)C(=O)N2CCOCCOCCOCC2)cc1 (stereo not given) |  | inactive: -0.528% |
| COc1cc(C2NC(=S)NC(C)=C2C(=O)OC(C)C)ccc1OC(C)C (stereo not given) | inconclusive [inhibitor, partial curve, poor fit] |  |
| Cc1ccc(NC(=O)Cn2nc(N3CCN(c4ccccc4)CC3)ccc2=O)cc1F |  | inactive: 15.5% |
| CC(NCCC1(C(C)C)CCOC(C)(C)C1)c1cccs1 (stereo not given) | inconclusive [inhibitor, full curve] |  |
| O=C(Nc1ccc(Cl)cc1)c1cc2c(cc1O)[nH]c1ccccc12 | active: 12.6 µM |  |
| OCCNc1nc2ccccc2nc1NCCO |  | inactive: 7.18% |
| CCCCNC(=O)C1CC(=O)N(CCc2ccc(C)cc2)C1 (stereo not given) | inconclusive [inhibitor, single point] |  |
| CN(C)c1ccc(C2CC(=O)OC3=C2C(=O)CC(C)(C)C3)cc1 (stereo not given) | inconclusive [inhibitor, single point] |  |
| O=C(CNC(=O)c1ccncc1)N/N=C/c1ccc(O)cc1O | inconclusive [inhibitor, full curve] |  |
| O=C(Nc1ccc(OC(F)(F)F)cc1)c1noc2c1CCCC2 |  | inactive: -4% |
| C=CCNC(=S)N/N=C/c1ccc(-c2ccc(OC)cc2)o1 | inconclusive [inhibitor, partial curve, poor fit] |  |
| COc1ccc(N=C2C=CC(=O)O2)cc1 | inconclusive [inhibitor, single point] |  |
| NC(=O)c1ccc(NC(=O)c2cncn2-c2ccccc2)cc1 | inconclusive [inhibitor, single point] |  |
| N#Cc1c(=O)c2nc(NCCCO)ncc2n2c(=O)c3ccccc3[nH]c12 | inconclusive [inhibitor, single point] |  |
| O=C(NCc1ccco1)c1cnn2c1NC(c1ccc(Br)cc1)CC2C(F)(F)F (stereo not given) | inconclusive [inhibitor, single point] |  |
| Cc1ccc(C(=O)N(CCN2CCCCC2)CC2CCCN(C3CCCC3)C2)s1 (stereo not given) |  | inactive: -3.34% |
| COc1ccc(-c2noc(CSc3nc(-c4ccccc4)cc(=O)[nH]3)n2)cc1OC | inconclusive [inhibitor, single point] |  |
| CCc1nnc(N/N=C/c2ccc(-c3ccc([N+](=O)[O-])cc3)o2)n1N | inconclusive [inhibitor, single point] |  |
| O=C(NC(=O)N1CCN(c2ccc([N+](=O)[O-])cn2)CC1)c1ccccc1F |  | inactive: -1.69% |
| COc1cc([C@@H]2Nc3c(F)cccc3[C@@H]3C=CC[C@@H]32)cc(Br)c1OC | inconclusive [inhibitor, single point] |  |

| Structure (SMILES) | Potency | activity change, negative = inhibition |
| --- | --- | --- |
| CCN(CC)c1ccc(/C=N/NS(=O)(=O)c2ccc(C)c([N+](=O)[O-])c2)cc1 | inconclusive [inhibitor, partial curve, poor fit] |  |
| COc1cc(/C=C2/C(=O)NN(c3ccc(Cl)cc3)C2=O)cc(OC)c1O |  | inactive: 17.8% |
| O=C(NCc1ccccc1)c1cc2ccc(O)cc2oc1=O | inconclusive [inhibitor, single point] |  |
| Cc1ccc2c(c1)cc(CN(Cc1cccnc1)C(=O)NCc1ccccc1)c1nnnn12 | inconclusive [inhibitor, single point] |  |
| O=C(O)CC/C(=C\c1ccc(N2CCOCC2)c([N+](=O)[O-])c1)c1nc2ccccc2s1 |  | inactive: 4.23% |
| COc1ccc(CCNc2nc(-c3ccc(NC(C)=O)cc3)cs2)cc1OC | inconclusive [inhibitor, single point] |  |
| Nc1c(C(=O)NCC2CCCO2)sc2nc3c(c(-c4ccco4)c12)CC/C3=C\c1ccco1 (stereo not given) | inconclusive [inhibitor, partial curve, poor fit] |  |
| CCC(Cn1nnc2ccccc2c1=O)NC(=O)Nc1ccccc1Cl (stereo not given) |  | inactive: -25.2% |
| COCCNc1nnc(SCC(=O)NC(=O)c2ccc(Cl)cc2)s1 | inconclusive [inhibitor, partial curve, poor fit] |  |
| CC(C)n1cc(/C=C2/SC(=O)N(CC(=O)N3CCCC3)C2=O)c2ccccc21 |  | inactive: -0.252% |
| O=C(Nc1ccc2nccnc2c1)Nc1ccccc1Cl | inconclusive [inhibitor, single point] |  |
| CCOc1ccccc1CNC(=O)CC(C)n1ccc(C)n1 (stereo not given) |  | inactive: -2.82% |
| CCc1ccc(C(=O)NNC(=O)OC)cc1 | inconclusive [inhibitor, partial curve, poor fit] |  |
| O=C(c1ccccc1)C(O)(CN1CCCCC1)c1ccccc1 (stereo not given) | inconclusive [inhibitor, single point] |  |
| COC(=O)c1ccc(CSc2nnc(C)s2)cc1 | inconclusive [inhibitor, single point] |  |
| COc1cccc(/C=C2/C(=O)NN(c3ccc(Br)cc3)C2=O)c1O |  | inactive: 15.8% |
| CCOC(=O)c1cnc(Nc2nc3ccccc3o2)nc1CSc1nnc(C)s1 |  | inactive: 9.63% |
| CN[C@H]1C[C@H]2c3cc(N4CCN(C)CC4)ccc3CCN2C(=O)[C@H]1[C@H](C)O |  | inactive: 6.94% |
| CC(C)N(C(=O)COC(=O)c1cncc(Br)c1)C(C)C | inconclusive [inhibitor, single point] |  |
| Cc1ccc(NC(=S)NC(=O)Cc2ccccc2)c(O)c1 | inconclusive [inhibitor, partial curve, poor fit] |  |
| CCCc1nn2c(=O)cc(COC(=O)c3ccc(NC(=O)c4cccs4)cc3)nc2s1 |  | inactive: -0.909% |
| C[C@H](CO)N1C[C@H](C)[C@@H](CN(C)C(=O)Nc2cccc3ccccc23)OCCCC[C@H](C)Oc2ccc(NS(=O)(=O)c3cn(C)cn3)cc2C1=O | inconclusive [inhibitor, partial curve] |  |
